The text below walks through data of paper PMC4336329 (PLoS ONE, 2015).

SMILES strings stand for the structures. In all, about 310,000 compounds went through this assay and about 2,200 (0.71%) showed an effect of 50% or more. The effect is printed as a negative number. This is one part of the list.

The target in this assay is human ether-à-go-go-related gene (hERG) potassium channel (human, UniProt Q12809). The experiment in a line: primary screen, population patch clamp on CHO cells stably expressing hERG.
human ether-à-go-go-related gene (hERG) potassium channel, sequence (Q12809 whole entry, looked up): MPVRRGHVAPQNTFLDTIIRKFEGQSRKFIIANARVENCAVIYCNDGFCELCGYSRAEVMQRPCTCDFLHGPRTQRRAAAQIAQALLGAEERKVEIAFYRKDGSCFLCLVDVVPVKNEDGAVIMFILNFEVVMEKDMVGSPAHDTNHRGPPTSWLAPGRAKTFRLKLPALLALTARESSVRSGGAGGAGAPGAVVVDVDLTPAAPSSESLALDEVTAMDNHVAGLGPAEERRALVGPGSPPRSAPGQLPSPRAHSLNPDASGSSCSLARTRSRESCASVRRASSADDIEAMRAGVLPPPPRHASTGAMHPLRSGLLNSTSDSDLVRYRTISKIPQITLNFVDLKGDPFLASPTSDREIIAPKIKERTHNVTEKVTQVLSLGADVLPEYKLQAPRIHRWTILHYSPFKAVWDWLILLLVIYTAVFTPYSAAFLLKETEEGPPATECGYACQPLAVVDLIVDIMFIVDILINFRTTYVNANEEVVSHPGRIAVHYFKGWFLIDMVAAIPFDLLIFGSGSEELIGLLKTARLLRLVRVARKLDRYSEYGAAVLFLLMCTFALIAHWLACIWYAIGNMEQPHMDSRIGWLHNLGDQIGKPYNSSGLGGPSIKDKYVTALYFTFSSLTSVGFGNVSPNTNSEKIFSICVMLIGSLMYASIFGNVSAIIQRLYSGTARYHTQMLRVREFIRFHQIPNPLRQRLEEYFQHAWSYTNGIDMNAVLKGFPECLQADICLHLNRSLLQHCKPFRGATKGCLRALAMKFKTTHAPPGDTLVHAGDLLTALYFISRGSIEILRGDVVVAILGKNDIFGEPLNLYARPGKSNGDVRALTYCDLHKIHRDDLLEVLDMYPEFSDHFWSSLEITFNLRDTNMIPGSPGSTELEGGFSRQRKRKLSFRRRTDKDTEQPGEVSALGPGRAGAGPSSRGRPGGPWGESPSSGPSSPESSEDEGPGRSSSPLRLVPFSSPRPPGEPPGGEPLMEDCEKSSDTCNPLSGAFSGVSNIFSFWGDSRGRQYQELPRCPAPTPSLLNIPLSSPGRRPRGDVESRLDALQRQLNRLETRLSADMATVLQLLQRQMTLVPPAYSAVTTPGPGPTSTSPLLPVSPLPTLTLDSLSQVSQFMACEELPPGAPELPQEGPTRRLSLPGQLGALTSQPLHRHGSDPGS
As for `O=C(O)c1ccc(CNC(=O)c2ccc(C(F)(F)F)cc2)cc1`, the “hERG current change (%, negative = inhibition) at 1uM” value came to 10.3%.

For `CCOC(=O)N1CCN(CC(=O)N2c3ccccc3CCc3ccccc32)CC1.O=C(O)C(=O)O`, the “hERG current change (%, negative = inhibition) at 1uM” value stood at 3.83%.

`Cc1ccc(O)c(C2=Nc3ccccc3N=C(c3cccs3)C2)c1`: the “hERG current change (%, negative = inhibition) at 1uM” value was 12.4%.

`Cc1ccccc1NC(=O)c1ccc2c(O)c(S(=O)(=O)c3ccccc3)c(=O)[nH]c2c1`: the “hERG current change (%, negative = inhibition) at 1uM” value came out at 6.14%.

`CCC(=O)Nc1ccc(C(=O)CN2C(=O)NC3(CCOc4ccccc43)C2=O)cc1` (centres unmarked): the “hERG current change (%, negative = inhibition) at 1uM” value was found to be 2.73%.

Consider `COc1ccc(Cl)cc1S(=O)(=O)N1CCCC1=O`, for which the “hERG current change (%, negative = inhibition) at 1uM” value worked out at 13.6%.

Regarding `CCOC(=O)c1[nH]cnc1C(=O)Nc1cccc(OC)c1`, the “hERG current change (%, negative = inhibition) at 1uM” value turned out to be 8.6%.

As to `O=C(NC12CC3CC(CC(C3)C1)C2)c1ccccc1`, the “hERG current change (%, negative = inhibition) at 1uM” value was 15.6%.

In the case of `Cc1onc(-c2c(F)cccc2Cl)c1C(=O)NCCc1ccncc1`, the “hERG current change (%, negative = inhibition) at 1uM” value turned out to be 8.41%.

For `CCOc1ccc(CNC(=S)N/N=C/c2ccc(OC)c(OC)c2)cc1`, the “hERG current change (%, negative = inhibition) at 1uM” value was -1.05%.

In the case of `Cc1ccc(-c2ccc(=O)n(Cc3cccc(Br)c3)n2)cc1`, the “hERG current change (%, negative = inhibition) at 1uM” value came to 17.9%.

With `C=CCN1C(=O)C(Cc2ccc(F)cc2)S/C1=N/N=C/c1cccs1` (centres unmarked), the “hERG current change (%, negative = inhibition) at 1uM” value is recorded as -8.59%.

`COc1ccc(-c2nnc(SCC(=O)Nc3sc4c(c3C#N)CCCC4)n2-c2ccccc2)cc1`: the “hERG current change (%, negative = inhibition) at 1uM” value came out at 13.9%.

As for `NC(=O)CC(NC(=O)c1cccc(Br)c1)c1ccc(NCC2CC2)c([N+](=O)[O-])c1` (centres unmarked), the “hERG current change (%, negative = inhibition) at 1uM” value was 1.58%.

With `CCN(CC)S(=O)(=O)c1ccc2oc(C(=O)NCCCN3CCOCC3)c(C)c2c1`, the “hERG current change (%, negative = inhibition) at 1uM” value came to 9.23%.

For the compound `CCCN(CCC)Cc1c(C(=O)N/N=C/C(C)=C\c2ccco2)nnn1-c1nonc1N`, the “hERG current change (%, negative = inhibition) at 1uM” value came to 7.94%.

`O=C(O)CC(CC(=O)Nc1ccc(-c2ccccc2)cc1)c1ccccc1` (centres unmarked): the “hERG current change (%, negative = inhibition) at 1uM” value is recorded as 13%.

In the case of `O=C(Nc1cccc(-c2cnc3ccccc3n2)c1)c1ccccc1`, the “hERG current change (%, negative = inhibition) at 1uM” value was determined as 5.07%.

On to `CCC(=O)Nc1sc(Cc2ccccc2)c(C)c1C(N)=O`, for which the “hERG current change (%, negative = inhibition) at 1uM” value was determined as 9.28%.

For `O=C(NCCC1=CCCCC1)C(=O)c1c[nH]c2ccccc12`, the “hERG current change (%, negative = inhibition) at 1uM” value is given as 21.9%.

In the case of `CC(C)(C)OC(=O)N/N=C/c1c[nH]c2ccccc12`, the “hERG current change (%, negative = inhibition) at 1uM” value stood at 7.74%.

Turning to `O=C1CCCC(O)=C1N=Nc1ccc2ncsc2c1`, the “hERG current change (%, negative = inhibition) at 1uM” value was 4.98%.

For `COc1cc(OC)cc(C(=O)NCCCNC(=O)c2ccccn2)c1`, the “hERG current change (%, negative = inhibition) at 1uM” value was 16%.

For the compound `CCOc1cc(C(=S)N2CCCCC2)ccc1OS(=O)(=O)c1ccc(Cl)cc1`, the “hERG current change (%, negative = inhibition) at 1uM” value is 6.25%.

With `COc1ccc(NC(=O)c2cccc(S(=O)(=O)NCc3ccco3)c2)c(OC)c1`, the “hERG current change (%, negative = inhibition) at 1uM” value came to 8.14%.

With `CCn1c(=O)c(C(=O)NCc2ccccc2Cl)c(O)c2ccccc21`, the “hERG current change (%, negative = inhibition) at 1uM” value was determined as 4.93%.

With `COc1ccc(S(=O)(=O)N2CCCC2)cc1C(=O)O`, the “hERG current change (%, negative = inhibition) at 1uM” value was found to be 19.4%.

As for `COc1ccc(N/C=C\C(=O)c2ccc(C)cc2)cc1OC`, the “hERG current change (%, negative = inhibition) at 1uM” value was determined as 19.2%.

Take `CN1CCc2c(sc(NC(=O)c3cc(Cl)sc3Cl)c2C(N)=O)C1.Cl`: the “hERG current change (%, negative = inhibition) at 1uM” value is -3.99%.

As for `COCCNC(=O)c1cn(C)c(=O)c2cc(OC)c(OC)cc12`, the “hERG current change (%, negative = inhibition) at 1uM” value turned out to be 15.5%.

Turning to `CC(=O)Nc1nnc(CCN(CCc2nnc(NC(C)=O)s2)[N+](=O)[O-])s1`, the “hERG current change (%, negative = inhibition) at 1uM” value came to 10.8%.

For `O=C(Cc1ccc(S(=O)(=O)N2CCOCC2)s1)N1CCN(c2cccc(C(F)(F)F)c2)CC1`, the “hERG current change (%, negative = inhibition) at 1uM” value was 0.747%.

On to `Cc1ccc(-c2noc(CCC(=O)NCCN3CCN(Cc4ccccc4)CC3)n2)cc1`, for which the “hERG current change (%, negative = inhibition) at 1uM” value is given as -15.1%.

Regarding `COc1ccc(C(=O)N2CCN(C(C)=O)CC2)cc1S(=O)(=O)N1CCOCC1`, the “hERG current change (%, negative = inhibition) at 1uM” value amounted to 14.4%.

For `O=C(Cc1cccs1)Nc1nnc(COc2ccccc2)s1`, the “hERG current change (%, negative = inhibition) at 1uM” value is listed as 0.693%.

With `CCC(c1nnnn1CCOC)N(Cc1cc2cc(C)c(C)cc2[nH]c1=O)CC1CCCO1` (centres unmarked), the “hERG current change (%, negative = inhibition) at 1uM” value stood at 7.8%.

`CC(C)(C)c1cc(NC(=O)COc2ccc(Br)cc2)n(-c2ccccc2)n1`: the “hERG current change (%, negative = inhibition) at 1uM” value was determined as 7.76%.

Consider `NNc1nc(-c2ccccc2Cl)nc2ccccc12`, for which the “hERG current change (%, negative = inhibition) at 1uM” value worked out at 14.4%.

Consider `COC(=O)C1=C(C(=O)OC)[C@@H]2Nc3ccccc3[C@@]23C[C@@H](C(=O)OC)N(C(=O)C2CCC2)C3=N1`, for which the “hERG current change (%, negative = inhibition) at 1uM” value is 9.05%.

For the compound `O=C(O)C(=O)O.OC(CNCC(c1ccco1)N1CCCCC1)c1ccccc1` (centres unmarked), the “hERG current change (%, negative = inhibition) at 1uM” value was 8.11%.

As for `Nc1cc(Cl)ccc1Oc1ccc2ccccc2c1`, the “hERG current change (%, negative = inhibition) at 1uM” value is listed as -4.96%.

In the case of `O=C(Nc1nc2c(Cl)ccc(Cl)c2s1)C1CC1`, the “hERG current change (%, negative = inhibition) at 1uM” value turned out to be 5.76%.

Regarding `O=C(NCCc1ccccc1)/C(=N\O)c1ccccc1`, the “hERG current change (%, negative = inhibition) at 1uM” value was 7.55%.

Consider `Nc1ccc(C(=O)N2N=C(c3ccccc3)CC2(O)C(F)(F)F)cc1` (centres unmarked), for which the “hERG current change (%, negative = inhibition) at 1uM” value came out at 0.981%.

For the compound `COc1cccc2c1C(=O)c1c(O)c3c(c(O)c1C2=O)C[C@](O)(C(C)=O)C[C@H]3O[C@@H]1C[C@@H](N)[C@@H](O)[C@@H](C)O1.Cl`, the “hERG current change (%, negative = inhibition) at 1uM” value was 4.93%.

Turning to `CCc1ccc(NC(=O)CSCCO)cc1`, the “hERG current change (%, negative = inhibition) at 1uM” value is 7.59%.

As for `C=CCSC1=N/C(=C\c2cc(OCC)c(OC(C)=O)c([N+](=O)[O-])c2)C(=O)S1`, the “hERG current change (%, negative = inhibition) at 1uM” value amounted to 2.71%.

As to `COc1cc(C(O)CN)ccc1O.Cl` (centres unmarked), the “hERG current change (%, negative = inhibition) at 1uM” value turned out to be 7.49%.

Consider `N#Cc1ccc(CSc2nnc(-c3cnccn3)o2)cc1`, for which the “hERG current change (%, negative = inhibition) at 1uM” value was -8.11%.

Consider `Cc1cc(C)n(CCC(=O)Nc2cccc(F)c2)n1`, for which the “hERG current change (%, negative = inhibition) at 1uM” value amounted to 6.01%.

Regarding `O=C(O)CCCC(=O)N1CCC(C(O)(c2ccccc2)c2ccccc2)CC1`, the “hERG current change (%, negative = inhibition) at 1uM” value stood at 4.99%.

As to `C=Cn1c(P(=S)(N2CCOCC2)N2CCOCC2)cc2c1CCCC2`, the “hERG current change (%, negative = inhibition) at 1uM” value came to 2.78%.

As to `COc1ccc([N+](=O)[O-])cc1NC(=O)CSCc1ccccc1C`, the “hERG current change (%, negative = inhibition) at 1uM” value is on record as 3.97%.

`CCC1CCCCN1Cc1nc2c(c(=O)n(C)c(=O)n2C)n1CCC(C)C` (centres unmarked): the “hERG current change (%, negative = inhibition) at 1uM” value is on record as 5.24%.

With `Cc1ccc(NC(=O)CSc2nc(=O)cc(N)n2CCc2ccccc2)cc1`, the “hERG current change (%, negative = inhibition) at 1uM” value was -6.64%.

For the compound `COc1ccc(C2C(C#N)=C(N)Oc3n[nH]c(C)c32)cc1Cn1nnc2ccccc21` (centres unmarked), the “hERG current change (%, negative = inhibition) at 1uM” value is reported as -1.44%.
